In all, about 420,000 compounds went through this assay and about 50,000 (12%) were called active. The shares of active, inactive and inconclusive entries below differ from those in the screen. The call rests on the fitted dose curve; in most records, active means well fitted inhibition curve with a large enough effect; inconclusive means small, poorly fitted or top-dose-only effect; inactive means flat fitted curve, though single readings scatter. Potencies of inconclusive entries are left out as doubtful fits.
Assay: qHTS for Inhibitors of human tyrosyl-DNA phosphodiesterase 1 (TDP1): qHTS in cells in presence of CPT; further: nearly all actives have a fitted effect of over 55% in size
Conditions: chicken DT40 Tdp1-/-;hTDP1 cells + 20 nM CPT, ATP luminescence, 48 h; activity change, negative = growth inhibition: at 46.2 µM (top of the series)
In short: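 Chicken DT40 Tdp1-/- cells stably complemented with human TDP1 were seeded at 400 cells/well in medium containing 20 nM camptothecin, exposed to pin-transferred compounds, and grown at 37 °C for at least 48 hr. Viability was read as ATP luminescence.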
On the % scale 0 is the no-effect control and ±100 the full control effect; potency means the concentration at half of the fitted maximal effect; tags describe the fitted curve by direction and shape.

Compound	Potency	activity change, negative = growth inhibition
O=C(NCCc1cccc(Cl)c1)c1cccc([N+](=O)[O-])c1	inconclusive [inhibitor, single point]	–
Cn1nnc(NC(=S)NC(=O)c2ccco2)n1	inconclusive [inhibitor, single point]	–
COc1ccc(-c2nc3c4ccccc4ccn3c2Cc2cccc(F)c2)cc1OC	inconclusive [inhibitor, single point]	–
O=C(CN1CCc2ccccc21)NC(c1ccccc1)c1ccccc1	–	inactive: -13.1%
CCOC(=O)c1cc(-c2ccc(F)cc2)n(CC(=O)NCc2cccnc2)c1C	–	inactive: -0.819%
COc1cc(CNc2ccccc2SC)cc(OC)c1OC	active: 20.6 µM	–
CCOC(=O)Nc1ccc2c(c1)N(C(=O)CCN1CCN(C)CC1)c1ccccc1S2	inconclusive [inhibitor, single point]	–
CC(=O)Nc1ccc2nc(-c3cccs3)[nH]c2c1	–	inactive: -9.6%
COc1ccc(Cl)cc1NC(=O)Cn1c(=O)n2nc(-c3ccccc3)nc2c2ccccc21	–	inactive: -4.94%
COc1ccccc1NS(=O)(=O)c1ccc(N/N=C/c2ccccc2OCC(=O)O)c([N+](=O)[O-])c1	–	inactive: -7.5%
CCc1cc(C)cc(OCCOc2ccccc2/C=N/NC(C)=O)c1	inconclusive [inhibitor, single point]	–
CN(CC(=O)Nc1cc(Cl)cc(Cl)c1)Cc1cccs1	–	inactive: -6.65%
COCCN(C(=O)c1cc(Cl)nc2ccccc12)c1c(N)n(Cc2ccccc2)c(=O)[nH]c1=O	–	inactive: -23.6%
COc1cccc(NC(=O)Cn2c(=O)n(CCC(=O)NCc3ccccc3OC)c(=O)c3ccccc32)c1	active: 25.9 µM	–
Cc1cc(N)ccc1NC(=O)c1ccccc1	inconclusive [inhibitor, single point]	–
COc1ccc(S(=O)(=O)N2CCCC2=O)cc1N(C)S(C)(=O)=O	–	inactive: -0.0962%
CCN1CCc2c(sc(-n3cccc3)c2C(C)NC(=O)Nc2ccc(C(=O)OC)cc2)C1 (stereo not drawn)	active: 18.4 µM	–
Cc1ccc(NC(=O)Cn2cc3c(n2)CCCC3)cc1Cl	–	inactive: -29%
O=C(CSc1nnc(NC(=O)c2ccc(S(=O)(=O)N3CCOCC3)cc2)s1)Nc1ccccc1C(F)(F)F	–	inactive: -4.21%
COc1ccc(C)c2sc(N(Cc3cccnc3)C(=O)c3cccs3)nc12	inconclusive [inhibitor, single point]	–
Cc1ccc(-c2nn3c(C)nnc3c3ccccc23)cc1S(=O)(=O)NCc1ccccc1	inconclusive [inhibitor, single point]	–
COc1c(C)cc(Br)cc1C(=O)NC(=S)NCc1ccco1	–	inactive: -5.42%
Oc1ccc(N2CCN(c3nnnn3-c3ccccc3)CC2)cc1	inconclusive [inhibitor, partial curve]	–
Cc1cc(NC(=O)CSc2nc3ccccc3cc2C#N)no1	–	inactive: -7.4%

Compound	Potency	activity change, negative = growth inhibition
O=C(Nc1cccc(F)c1)c1cnc2sc(N3CCCC3)nn2c1=O	active: 2.31 µM	–
CCOc1ccc(NCCC(=O)c2ccc3c(c2)OCO3)cc1	active: 25.9 µM	–
O=C(O)c1ccc(N2CCN(Cc3ccc4c(c3)OCO4)CC2)c([N+](=O)[O-])c1	inconclusive [inhibitor, single point]	–
COc1ccc(CNC(=O)c2nn(C)c3c2CSc2ccccc2-3)cc1	inconclusive [inhibitor, single point]	–
COc1ccc(CNS(=O)(=O)c2ccc(-c3cc(C(F)(F)F)on3)s2)cc1OC	active: 9.2 µM	–
C=CC[C@H](CC(=O)OC(C)(C)C)C(=O)OC[C@@H]1CCCN1C(=O)[C@@H](CC=C)CC(=O)N[C@H](CO)Cc1ccccc1	active: 16.4 µM	–
CC(=O)Nc1ccc2ccc3cccc4ccc1c2c34	–	inactive: -2.21%
Cc1ccc(NC(=O)Cn2c(=O)n(Cc3ccccc3)c(=O)c3c(C)c(C(=O)N(C)C)sc32)c(C)c1	inconclusive [inhibitor, single point]	–
O=C1[C@H]2[C@@H](c3ccc(F)cc3)N3C(=O)N(c4ccc(Br)cc4)C(=O)[C@@]3(Cc3ccccc3)[C@H]2C(=O)N1C1CCCCC1	inconclusive [inhibitor, partial curve, poor fit]	–
O=C(Nc1ccc(Cl)cn1)C1CCCN1S(=O)(=O)c1ccc(Cl)cc1 (stereo not drawn)	inconclusive [inhibitor, single point]	–
Cc1cc(C)c(Cn2cnc3ccccc32)c(C)c1	–	inactive: -25.1%
CN(C)c1ccc(/C=C/C(=O)c2ccccc2O)cc1	inconclusive [inhibitor, single point]	–
COc1ccc(N(C)S(=O)(=O)c2ccc3c(c2)CCN3C(=O)CCC(=O)O)cc1	–	inactive: 12.9%
CN(C)C(CNC(=O)CSc1nc2sc3c(c2c(=O)n1C)CCC3)c1ccccc1 (stereo not drawn)	inconclusive [inhibitor, single point]	–
CCN(CC)c1ccc(NC(=S)NC(=O)c2ccco2)cc1	active: 18.4 µM	–
O=C(NC(=S)N1CCN(C/C=C/c2ccccc2)CC1)c1ccc(Cl)nc1	active: 23.1 µM	–
CCOC(=O)c1ccc(N2C(=O)c3n[nH]c(-c4ccco4)c3C2c2ccccc2OC)cc1 (stereo not drawn)	active: 18.4 µM	–
CCn1c(SCC(=O)NC2CCCCC2)nnc1-c1cc2cccc(OC)c2o1	inconclusive [inhibitor, single point]	–
Cn1c(=O)c2c(ncn2CC(=O)N/N=C/C=C/c2ccccc2)n(C)c1=O	–	inactive: -7.07%
CC(C)Sc1nc2c(c(=O)[nH]c(=O)n2C)n1CCc1ccccc1	inconclusive [inhibitor, single point]	–
Cn1c(=O)c2c(nc(N3CCCCCC3)n2Cc2cccc3ccccc23)n(C)c1=O	inconclusive [inhibitor, partial curve, poor fit]	–
Cc1cnc(C(=O)N2CCCC(C(=O)c3ccc(C(C)(C)C)cc3)C2)cn1 (stereo not drawn)	inconclusive [inhibitor, single point]	–
O=C(CSc1nc(-c2ccccc2)cs1)NCc1ccco1	–	inactive: -11.4%
CCN1CCN(C(=O)N[C@@H](C(=O)N[C@@H]2C(=O)N3C(C(=O)O)=C(CSc4nnnn4C)CS[C@H]23)c2ccc(O)cc2)C(=O)C1=O	inactive	–

Source: PubChem BioAssay AID686979 (National Center for Advancing Translational Sciences (NCATS), 2013)
